From PMC7529893, “Structural basis for substrate recognition and chemical inhibition of oncogenic MAGE ubiquitin ligases” (Nature Communications, 2020)
These are yes or no findings as the source states them, for the method shown. For part of these data: Binding seen in cells or lysates may run through a third protein. Some binding calls cover weakened binding; strength is not graded here. For part of these data: Tags and fused reporters may be left off the sequences shown.

Columns and labels:
Myc-MAGE-F1 L196R = molecular target: T1, Myc-MAGE-F1 L196R (UniProt Q9HAY2); test: co-IP; HEK293FT cells transfected with the indicated constructs for 48 h; IP with anti-Myc, immunoblot; in Fig. 5i lysates were incubated with 100 µM SJ521054 or SJ1008066 for 24 h
T1 sequence: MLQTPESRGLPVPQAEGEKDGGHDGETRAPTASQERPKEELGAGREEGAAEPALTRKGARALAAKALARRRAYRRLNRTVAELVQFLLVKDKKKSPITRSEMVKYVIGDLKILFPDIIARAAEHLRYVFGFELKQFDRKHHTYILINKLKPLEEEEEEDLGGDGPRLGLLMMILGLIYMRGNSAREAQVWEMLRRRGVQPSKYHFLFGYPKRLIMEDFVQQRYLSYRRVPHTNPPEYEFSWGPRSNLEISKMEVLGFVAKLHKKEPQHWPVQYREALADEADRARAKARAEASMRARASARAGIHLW

Myc-MAGE-F1 W269A = molecular target: T2, Myc-MAGE-F1 W269A (UniProt Q9HAY2); test: as above
T2 sequence: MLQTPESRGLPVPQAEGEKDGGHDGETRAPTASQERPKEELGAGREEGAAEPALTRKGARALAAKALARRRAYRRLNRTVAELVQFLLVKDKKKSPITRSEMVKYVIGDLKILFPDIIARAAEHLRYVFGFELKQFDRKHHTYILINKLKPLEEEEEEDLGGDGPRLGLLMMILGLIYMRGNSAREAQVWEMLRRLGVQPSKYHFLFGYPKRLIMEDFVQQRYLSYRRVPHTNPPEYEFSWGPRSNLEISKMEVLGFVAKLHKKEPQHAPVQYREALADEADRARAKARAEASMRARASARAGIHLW

Myc-MAGE-F1 F129A = molecular target: T3, Myc-MAGE-F1 F129A (UniProt Q9HAY2); test: as above
T3 sequence: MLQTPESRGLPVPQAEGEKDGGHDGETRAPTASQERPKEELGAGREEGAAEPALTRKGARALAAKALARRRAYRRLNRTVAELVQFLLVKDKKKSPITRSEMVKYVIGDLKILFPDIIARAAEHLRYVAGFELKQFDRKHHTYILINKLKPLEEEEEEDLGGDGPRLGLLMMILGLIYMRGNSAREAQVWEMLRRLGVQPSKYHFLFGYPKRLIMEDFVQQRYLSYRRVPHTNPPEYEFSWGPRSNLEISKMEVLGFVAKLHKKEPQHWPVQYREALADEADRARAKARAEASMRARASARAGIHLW

Myc-MAGE-F1 wild-type = molecular target: T4, Myc-MAGE-F1 wild-type (UniProt Q9HAY2); test: as above
T4 sequence: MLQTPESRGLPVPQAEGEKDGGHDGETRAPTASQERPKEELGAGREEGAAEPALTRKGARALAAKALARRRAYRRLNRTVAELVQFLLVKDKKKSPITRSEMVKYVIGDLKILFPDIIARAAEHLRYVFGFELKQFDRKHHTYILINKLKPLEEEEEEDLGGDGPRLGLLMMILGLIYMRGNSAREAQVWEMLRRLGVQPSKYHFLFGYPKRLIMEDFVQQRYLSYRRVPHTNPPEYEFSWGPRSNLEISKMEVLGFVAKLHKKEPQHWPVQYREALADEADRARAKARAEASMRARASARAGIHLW

[1] = molecular target: MAGE-A11 MHD (218-429), as part of the crystallised fusion (human) (UniProt P43364); test: crystal structure; PCF11 677-701 fused by GGSGRP to the N-terminus of MAGE-A11 MHD 218-429; sitting drop, 20 °C, 0.2 M Na acetate, 0.1 M Bis Tris propane pH 7.5, 20% PEG 3350; four protomers in the P 1 cell; both purified
[2] = molecular target: MAGE-A11 in cell lysates (co-IP for dimer formation, Supplementary Fig. 2a) (human) (UniProt P43364); test: co-IP; cell lysates (Supplementary Fig. 2a); constructs not given

B1: NSE1 (enzyme, UniProt Q8WV22 1-266)
chain: MQGSTRRMGVMTDVHRRFLQLLMTHGVLEEWDVKRLQTHCYKVHDRNATVDKLEDFINNINSVLESLYIEIKRGVTEDDGRPIYALVNLATTSISKMATDFAENELDLFRKALELIIDSETGFASSTNILNLVDQLKGKKMRKKEAEQVLQKFVQNKWLIEKEGEFTLHGRAILEMEQYIRETYPDAVKICNICHSLLIQGQSCETCGIRMHLPCVAKYFQSNAEPRCPHCNDYWPHEIPKVFDPEKERESGVLKSNKKSLRSRQH
In the case of B1, the binding (Myc-MAGE-F1 L196R) is reported as “binds”, the binding (Myc-MAGE-F1 W269A) is reported as “binds” and the binding (Myc-MAGE-F1 F129A) is reported as “binds”. For the same binder, the binding (Myc-MAGE-F1 wild-type) was “binds”.

B2: MAGE-A11 MHD (218-429), as part of the crystallised fusion (domain or fragment, UniProt P43364 218-429)
chain: SQDILHDKIIDLVHLLLRKYRVKGLITKAEMLGSVIKNYEDYFPEIFREASVCMQLLFGIDVKEVDPTSHSYVLVTSLNLSYDGIQCNEQSMPKSGLLIIVLGVIFMEGNCIPEEVMWEVLSIMGVYAGREHFLFGEPKRLLTQNWVQEKYLVYRQVPGTDPACYEFLWGPRAHAETSKMKVLEYIANANGRDPTSYPSLYEDALREEGEGV
For B2, the binding [1] was “no binding”.

B3: MAGE-A11 in cell lysates (co-IP for dimer formation, Supplementary Fig. 2a) (protein, UniProt P43364 1-429)
chain: METQFRRGGLGCSPASIKRKKKREDSGDFGLQVSTMFSEDDFQSTERAPYGPQLQWSQDLPRVQVFREQANLEDRSPRRTQRITGGEQVLWGPITQIFPTVRPADLTRVIMPLEQRSQHCKPEEGLQAQEEDLGLVGAQALQAEEQEAAFFSSTLNVGTLEELPAAESPSPPQSPQEESFSPTAMDAIFGSLSDEGSGSQEKEGPSTSPDLIDPESFSQDILHDKIIDLVHLLLRKYRVKGLITKAEMLGSVIKNYEDYFPEIFREASVCMQLLFGIDVKEVDPTSHSYVLVTSLNLSYDGIQCNEQSMPKSGLLIIVLGVIFMEGNCIPEEVMWEVLSIMGVYAGREHFLFGEPKRLLTQNWVQEKYLVYRQVPGTDPACYEFLWGPRAHAETSKMKVLEYIANANGRDPTSYPSLYEDALREEGEGV
For B3, the binding [2] was “no binding”.
